Among all 5,400 compounds or so, about 190 (3.5%) showed an effect of 50% or more. Some of the results follow. Starred links: 1 amine or outer side, 2 acyl side, 3 side chain; linkers in the order of their positions; H or OH if unused. Positions of bridges follow the written chain, without caps; N, C: chain ends. Residues, ends and D or L forms follow the SMILES beside them. X2 = O=C(CCC[*:2])[*:1]

The test relates to Vero-E6. Briefly: primary screen, phospholipidosis by LipidTOX staining; higher = more effect of the substance. Particulars: 10 µM. In short, it runs like this: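 Single-concentration screen at 10 μM, with DMSO 0.1 v/v % and amiodarone 10 μM as controls. Read-out is LipidTOX Red phospholipid staining, which tolerates aldehyde fixation, in Vero-E6 cells.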
For `COc1ccc([C@@H]2CC(=O)c3c(O)cc(O)cc3O2)cc1O`, the result_ITMP was -4.36%. `N=C1NC(=O)/C(=C/c2ccc(O)cc2)S1`: the result_ITMP is -1.38%.

As for `CC[C@H](C)[C@@H]1NC(=O)[C@H](Cc2ccc(OC)cc2)NC(=O)CCCSC[C@@H](C(=O)N2CCC[C@H]2C(=O)N[C@@H](CC(C)C)C(=O)NCC(N)=O)NC(=O)[C@H](CC(N)=O)NC(=O)[C@H](CCC(N)=O)NC1=O` (Y(Me)IQNCPLG-NH2; linker N-5 via X2), the result_ITMP is -0.16%.

In the case of `NC(=O)c1ccc(N(C(N)=O)c2c(F)cccc2F)nc1-c1ccc(F)cc1F`, the result_ITMP is given as -4.92%. Regarding `CN1C2CC(O)[C@H]1C[C@@H](OC(=O)[C@H](CO)c1ccccc1)C2` (mixture of isomers), the result_ITMP was -3.11%. As for `C[N+]1(C)CCC(OC(=O)C(c2ccccc2)c2ccccc2)CC1`, the figure is -5.87%; as for `CCOC(=O)c1ccccc1OC(N)=O`, -2.6%.

In the case of `Oc1cc(O)c2c(c1)O[C@H](c1ccc(O)c(O)c1)[C@@H](O)C2`, the result_ITMP is -3.72%.

Regarding `CC(=O)Oc1ccccc1C(=O)Nc1ncc([N+](=O)[O-])s1`, the result_ITMP is listed as -2.98%. As for `Oc1ccccc1`, the figure is 2.3%.

For the compound `CCN(CC)CCOC(=O)C1(C2CCCCC2)CCCCC1`, the result_ITMP is on record as 7.59%.

For the compound `CCCc1cc(C)[nH]c(=O)c1CNC(=O)c1cc(-c2ccc(N3CCN(C(C)C)CC3)nc2)cc2c1cnn2C(C)C`, the result_ITMP turned out to be 1.19%. As to `CCOC(=O)c1ccccc1OC(=O)CCCCCCCC(=O)Oc1ccccc1C(=O)OCC`, the result_ITMP turned out to be 0.16%.

On to `CC1(C)OC(=O)C(OCC2CC2)=C1c1ccc(S(C)(=O)=O)cc1`, for which the result_ITMP was determined as 3.73%. As for `c1ccc(CC2=NCCN2)cc1`, the figure is -4.29%; as for `CC(C)(Oc1ccc(CCNC(=O)c2ccc(Cl)cc2)cc1)C(=O)O`, -3.73%. Turning to `OCCN1CCN(CCCN2c3ccccc3Sc3ccc(C(F)(F)F)cc32)CC1`, the result_ITMP turned out to be 60.4%.

As to `N#Cc1c(N2C[C@@H]3NCCO[C@H]3C2)c(F)cc2c(=O)c(C(=O)O)cn(C3CC3)c12`, the result_ITMP was -1.12%. As for `Clc1ccc2c(c1)C(N1CCNCC1)=Nc1ccccc1O2`, the figure is 70%; as for `CCc1nn(CCO)c(CC)c1Oc1cc(C#N)cc(C#N)c1`, 0.59%; as for `O=C(O)CCCc1c[nH]c2ccccc12`, -1.55%. On to `O=C1c2ccccc2C(=O)C1c1ccccc1`, for which the result_ITMP is -0.55%.

As to `O=C(Cn1ccnc1[N+](=O)[O-])NCc1ccccc1`, the result_ITMP came to 0.3%. Then `Cc1cc(SCc2sc(-c3ccc(C(F)(F)F)c(F)c3)nc2C)ccc1OCC(=O)O`, with -1.52%. Then `C#C[C@]1(O)CCC2C3CCC4=CC(=O)CC[C@@H]4C3CC[C@@]21CC` (stereo partly shown), with -1.88%; and `O=C(O)CCc1nc(-c2ccccc2)c(-c2ccccc2)o1`, with -0.9%.

In the case of `Cc1ncc([N+](=O)[O-])n1CC(O)CN1CCOCC1` (stereo not shown), the result_ITMP worked out at 0.25%. Then `Cc1[nH]c2ccc(Cl)cc2c1C1=CCNCC1`, with 96.8%; and `O=C(O)CCc1c(C(=O)O)[nH]c2cc(Cl)cc(Cl)c12`, with -0.99%; and `CC(C(=O)O)c1ccc(CC2CCCC2=O)cc1` (stereo not shown), with 0.43%.

Take `CCCCCCCC/C=C\CCCCCCCC(=O)OC(CO)CO`: the result_ITMP was -2.87%. As for `C=C1[C@@H](C)[C@H]2[C@H](Cc3ccccc3)NC(=O)[C@]23OC(=O)/C=C/[C@H](O)CCC[C@@H](C)C/C=C/[C@H]3[C@@H]1O`, the figure is 28.3%.

As for `CC[C@H]1OC(=O)[C@H](C)[C@@H](O[C@H]2C[C@@](C)(OC)[C@@H](O)[C@H](C)O2)[C@H](C)[C@@H](O[C@@H]2O[C@H](C)C[C@H](N(C)C)[C@H]2O)[C@](C)(O)C[C@@H](C)C(=O)[C@H](C)[C@@H](O)[C@]1(C)O`, the result_ITMP is -1.1%.

As to `Cc1cc2nc3c(=O)[nH]c(=O)nc-3n(C[C@@H](O)[C@@H](O)[C@@H](O)COP(=O)([O-])O)c2cc1C`, the result_ITMP is listed as 1.6%.

Consider `CC(=O)c1ccc2c(c1)C(=O)C1(CC1)O2`, for which the result_ITMP is 0.63%. As for `COc1ccc(Cl)cc1C(=O)NCCc1ccc(C(=O)O)cc1`, the figure is -4.02%; as for `COc1cccc(-c2c(C)n(Cc3c(F)cccc3C(F)(F)F)c(=O)n(C[C@H](NCCCC(=O)O)c3ccccc3)c2=O)c1F`, -5.96%. Take `Cc1c(Cl)cccc1Nc1ccccc1C(=O)O`: the result_ITMP was -2.87%.

For `COc1cccc(/C=N/CC/N=C/c2cccc(OC)c2[O-])c1[O-].[Mn+3]`, the result_ITMP is -5.92%.

As for `CC(C)C[C@@H](N)C(=O)N[C@H]1C(=O)N[C@@H](CC(N)=O)C(=O)N[C@H]2C(=O)N[C@H]3C(=O)N[C@H](C(=O)N[C@H](C(=O)O)c4cc(O)cc(O)c4-c4cc3ccc4O)[C@H](O)c3ccc(c(Cl)c3)Oc3cc2cc(c3O[C@@H]2O[C@H](CO)[C@@H](O)[C@H](O)[C@H]2O[C@H]2C[C@](C)(N)[C@H](O)[C@H](C)O2)Oc2ccc(cc2Cl)[C@H]1O`, the result_ITMP is -9.92%. Consider `Cc1cc(S(=O)(=O)[O-])c2c(C)ccc(C(C)C)cc1-2`, for which the result_ITMP is reported as -3.22%.

Turning to `COc1cc(F)c(C(C)C)cc1-c1ccc(C(F)(F)F)cc1CN1C(=O)O[C@H](c2cc(C(F)(F)F)cc(C(F)(F)F)c2)[C@@H]1C`, the result_ITMP is reported as -5.76%. Then `CO[C@H]1/C=C/O[C@@]2(C)Oc3c(C)c(O)c4c(O)c(c(/C=N/N5CCN(C)CC5)c(O)c4c3C2=O)NC(=O)/C(C)=C\C=C\[C@H](C)[C@H](O)[C@@H](C)[C@@H](O)[C@@H](C)[C@H](OC(C)=O)[C@@H]1C`, with -0.33%; and `CN(C)CCC1(c2ccc(Cl)cc2)Cc2ccccc2C(=O)O1` (racemic), with 27.5%; and `O=C(NCc1ccc(OC(F)(F)F)cc1)C1c2ccccc2C(=O)N1C1CCOCC1` (stereo not shown), with 3.14%. Then `C[C@]12CC/C(=N\OCCN)C[C@@H]1C(=O)C[C@@H]1[C@@H]2CC[C@]2(C)C(=O)CC[C@@H]12`, with -2.18%; and `CC(Oc1ccc(O)cc1)(P(=O)(O)O)P(=O)(O)O`, with 2.57%; and `C[C@H](N)C(=O)N[C@@H](CCC(N)=O)C(=O)O` (H-Ala-Gln-OH), with -8.62%. As for `CC(C)Nc1cc(-c2c[nH]c(C(=O)N[C@H](CO)c3cccc(Cl)c3)c2)c(Cl)cn1`, the figure is 0.57%.

For the compound `Cc1ccc(N(CC2=NCCN2)c2cccc(O)c2)cc1`, the result_ITMP is -2.18%. On to `C=Cc1c(C)c2cc3nc(c(CC(=O)O)c4[nH]c(cc5nc(cc1[nH]2)C(C)=C5CC)c(C)c4C(=O)O)C(CCC(=O)O)C3C` (stereo not shown), for which the result_ITMP is recorded as -7.86%. As for `CC(C)(C)c1ccc(/C=C/C(=O)Nc2ccc3c(c2)OCCO3)cc1`, the figure is -2.62%; as for `CCc1ccc(CCOc2ccc(CC3SC(=O)NC3=O)cc2)nc1` (stereo not shown), 2.36%.

As for `O=C(CCCCCCC(=O)Nc1cccnc1)NO`, the result_ITMP is recorded as -3.54%. Turning to `O=C1N[C@H](C(=O)O)CS1`, the result_ITMP is recorded as 4.13%. As for `C[C@H](N[C@@H](CCc1ccccc1)C(=O)O)C(=O)N1CCC[C@H]1C(=O)O`, the figure is 6.81%; as for `NC(=O)N1CCC(CC(=O)N2CCC([C@H]3c4ncc(Br)cc4CCc4cc(Cl)cc(Br)c43)CC2)CC1`, -1.91%; as for `CCc1noc(C)c1-c1[nH]c2ccccc2c1C(O)CN(C)C` (stereo not shown), -2.9%. Regarding `O=C(Nc1cccnn1)N1CCC(=Cc2cccc(Oc3ccc(C(F)(F)F)cn3)c2)CC1`, the result_ITMP is on record as 1.25%.

For `O=C(Nc1cc(C(F)(F)F)cc(C(F)(F)F)c1)c1cc(Cl)ccc1O`, the result_ITMP is 0.83%.

`CCNC(=O)[C@@H]1CCCN1C(=O)[C@H](CCCNC(=N)N)NC(=O)[C@H](CC(C)C)NC(=O)[C@@H](C)NC(=O)[C@H](Cc1ccc(O)cc1)NC(=O)[C@H](CO)NC(=O)[C@H](Cc1c[nH]c2ccccc12)NC(=O)[C@H](Cc1cnc[nH]1)NC(=O)[C@@H]1CCC(=O)N1`: the result_ITMP is -1.57%. As for `CCCc1nc(C(C)(C)O)c(C(=O)OCc2oc(=O)oc2C)n1Cc1ccc(-c2ccccc2-c2nn[nH]n2)cc1`, the figure is 11.1%; as for `OC[C@@H](O)[C@@H](O)[C@@H](O)CO`, -6.6%. Then `C1Cc2[nH]nc(-c3nnn[nH]3)c2C1`, with -1.64%; and `Clc1ccc(C(OCCN2CCCCC2)c2ccccc2)cc1` (stereo not shown), with 63.9%; and `CCCCC1CCC(c2nc(-c3ccncc3)no2)CC1` (stereo not shown), with -10.2%. As for `CCc1cc2cc(OC)c(OC)cc2c(Cc2ccccc2)n1`, the result_ITMP is recorded as -5.58%. As for `Cc1c(-c2ccc(-c3ccccc3F)cc2)nc2ccc(F)cc2c1C(=O)[O-]`, the figure is 5.08%. With `CN1C/C=C/CCOc2cccc(c2)-c2ccnc(n2)Nc2cccc(c2)C1`, the result_ITMP was -2.04%. As to `CCCOCCn1c(=O)c(N2CCN(CCO)CC2)nc2cnc(-c3ccc(OC)nc3)cc21`, the result_ITMP is recorded as 2.28%. Then `O=C(O)CCN(O)C(=O)CCCCCCCCC1CC1`, with -4.53%; and `NC(=O)N[C@@H](CCC(=O)O)C(=O)O`, with -1.17%.

`CC(C)C(=O)OC[C@@]1(N=[N+]=[N-])O[C@@H](n2ccc(N)nc2=O)[C@H](OC(=O)C(C)C)[C@@H]1OC(=O)C(C)C`: the result_ITMP is -2.06%. Consider `COCCCC/C(=N\OCCN)c1ccc(C(F)(F)F)cc1`, for which the result_ITMP was 48.9%. `CN1C(=O)c2c(nn(Cc3ccc(-c4cccc(F)n4)cc3)c2Nc2ccccc2)N2C1=N[C@@H]1CCC[C@@H]12`: the result_ITMP came to 37.5%. Turning to `COC(=O)[C@H](c1ccccc1Cl)N1CCc2sccc2C1`, the result_ITMP was -3.68%. Turning to `COc1ccc(C(=O)CCC(=O)O)c2ccccc12`, the result_ITMP is recorded as -7.01%. Then `N/C(=N\Cc1ccccc1)NC(=O)c1nc(Cl)c(N)nc1N`, with 17.2%; and `O=C(COc1ccc(C(=O)c2ccccc2)cc1)NC1CCN(Cc2ccccc2)CC1`, with 8.17%.

`Oc1ncc(N(CCCl)CCCl)c(O)n1`: the result_ITMP is 8.76%.

In the case of `Clc1ccccc1C(c1ccccc1)(c1ccccc1)n1cccn1`, the result_ITMP is recorded as -1.59%. As for `NC(=O)c1ccccc1O`, the figure is -3.89%.
